# Assay results published in article PMC4336329 (PLoS ONE, 2015).
# The whole screen tested about 310,000 compounds, of which about 14,000 (4.5%) showed an effect of 50% or more. Effects have a minus sign here. The list shows a part of the results.
# Target: human ether-à-go-go-related gene (hERG) potassium channel (human, UniProt Q12809)
# Experiment: primary screen, population patch clamp on CHO cells stably expressing hERG
# 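Also: peak tail current of the secondary pulse compared with the same well before compound.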
# Sequence of human ether-à-go-go-related gene (hERG) potassium channel (Q12809 whole entry, looked up): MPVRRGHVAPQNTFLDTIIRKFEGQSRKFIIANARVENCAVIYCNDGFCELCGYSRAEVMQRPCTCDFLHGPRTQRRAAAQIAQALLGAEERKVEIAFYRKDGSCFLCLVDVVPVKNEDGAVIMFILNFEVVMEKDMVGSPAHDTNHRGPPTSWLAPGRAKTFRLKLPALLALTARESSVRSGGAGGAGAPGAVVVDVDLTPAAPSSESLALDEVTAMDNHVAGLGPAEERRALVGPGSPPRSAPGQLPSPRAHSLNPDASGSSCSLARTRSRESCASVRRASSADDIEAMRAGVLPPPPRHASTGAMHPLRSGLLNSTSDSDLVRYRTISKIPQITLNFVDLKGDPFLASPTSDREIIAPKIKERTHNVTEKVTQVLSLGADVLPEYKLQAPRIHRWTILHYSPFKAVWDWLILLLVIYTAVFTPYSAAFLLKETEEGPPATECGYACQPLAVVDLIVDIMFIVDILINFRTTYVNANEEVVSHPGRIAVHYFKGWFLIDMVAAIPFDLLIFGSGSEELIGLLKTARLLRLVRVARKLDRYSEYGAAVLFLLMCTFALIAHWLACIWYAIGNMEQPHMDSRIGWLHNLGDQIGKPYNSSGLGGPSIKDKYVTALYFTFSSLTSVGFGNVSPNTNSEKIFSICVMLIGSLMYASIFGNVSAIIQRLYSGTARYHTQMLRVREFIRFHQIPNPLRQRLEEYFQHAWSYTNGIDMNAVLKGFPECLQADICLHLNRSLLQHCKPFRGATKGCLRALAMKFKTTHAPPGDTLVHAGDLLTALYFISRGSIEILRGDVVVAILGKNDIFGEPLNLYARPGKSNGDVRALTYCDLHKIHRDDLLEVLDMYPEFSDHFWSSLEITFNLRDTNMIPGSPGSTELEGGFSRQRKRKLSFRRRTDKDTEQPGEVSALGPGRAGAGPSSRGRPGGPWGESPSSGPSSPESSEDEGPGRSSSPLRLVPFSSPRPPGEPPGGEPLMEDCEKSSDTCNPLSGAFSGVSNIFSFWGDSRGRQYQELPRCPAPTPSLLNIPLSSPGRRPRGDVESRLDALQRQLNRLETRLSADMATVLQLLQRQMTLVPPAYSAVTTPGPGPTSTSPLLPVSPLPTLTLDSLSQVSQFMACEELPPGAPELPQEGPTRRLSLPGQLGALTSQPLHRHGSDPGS
row,SMILES,"hERG current change (%, negative = inhibition) at 10uM"
1,Cc1cccnc1NC(=O)CCc1nnc2ccc(NCc3ccco3)nn12,8.84%
2,CCN(CC)c1ccc(S(=O)(=O)N2CCOCC2)cc1NC(=O)CSc1nnc(N)s1,-21.1%
3,CCOc1ccc(C2/C(=C(/O)c3ccc(F)cc3)C(=O)C(=O)N2CCCN(C)C)cc1 (stereo not drawn),16.4%
4,COC(=O)Cn1cnc2c(cnn2-c2ccc(C)cc2)c1=O,-2.53%
5,Cc1ccc(N(C(=O)c2ccc(S(=O)(=O)N3CCOCC3)cc2)C2C=CS(=O)(=O)C2)cc1C (stereo not drawn),-6.34%
6,COc1cc(/C=N/NC(=O)c2ccc(C)nc2)cc([N+](=O)[O-])c1O,12.8%
7,COc1ccc(C(C(=O)NC2CCCCC2)N(C(=O)Cc2c[nH]c3ccccc23)c2ccccc2C)cc1OC (stereo not drawn),0.528%
8,Cc1ccc2cc3cc(C(=O)N(CC(=O)NC4CCCC4)c4cccc(C)c4C)sc3nc2c1,-9.68%
9,O=c1[nH]nc(-c2ccc(NCCCO)c([N+](=O)[O-])c2)c2ccccc12,-9.98%
10,Cc1ccc2nc(NC(=O)c3ccc4c(c3)OCO4)sc2c1,3.26%
11,NS(=O)(=O)c1ccc(CCNC(=O)C2COc3ccccc3O2)cc1 (stereo not drawn),-13.4%
12,CCN1C(=O)[C@@H]2[C@@H](c3ccc(SC4CCCCC4)cc3)N3CCC[C@@]3(C(=O)OC)[C@@H]2C1=O.O=C(O)C(F)(F)F,-12.7%
13,Cc1cc2[nH]c(=O)c(=O)[nH]c2cc1S(=O)(=O)Nc1cccc(C)c1C,23.1%
14,CC12CCC(C(=O)N3CCCc4ccccc43)(CC1=O)C2(C)C (stereo not drawn),4.14%
15,CCOc1ccccc1-n1nnnc1SCC(=O)O,-3.73%
16,O=C(CCC1CCCC1)Nc1nnc(-c2ccc3c(c2)OCO3)s1,4.71%
17,Cc1cc(Nc2ccc(C)c(C)c2)n2nc(C)nc2n1,-29.5%
18,COc1ccccc1CN1CC(C(=O)NCc2c(F)ccc(C)c2F)CCC1=O (stereo not drawn),4.66%
19,Cc1ccccc1CNC(=O)/C=C\C(=O)O,3.23%
20,O=C(Oc1c(CN2CCOCC2)cc(Cl)c2cccnc12)c1cccs1,-21.9%
21,Cn1c2ccccc2c2nnc(NN)nc21,12.2%

row,SMILES,"hERG current change (%, negative = inhibition) at 10uM"
1,Cn1c(SCC(=O)N2CCOCC2)nc2c(c1=O)SCC2,15.8%
2,Cc1ccc2nc(N/N=C/c3ccccc3F)nc(-c3ccccc3)c2c1,0.778%
3,COc1ccccc1N1CCN(C(=O)CCCCCn2c(=O)[nH]c3ccsc3c2=O)CC1,-24.7%
4,CCOc1ccc(NC(=O)CN(C)C(=O)c2ccccc2OCc2cccc(C)c2)cc1OCC,-10.3%
5,CCC(=O)Nc1cccc(NC(=O)CSc2nc3c(c(=O)n(C)c(=O)n3C)n2C)c1,18%
6,O=P(NS(=O)(=O)c1ccc(Br)cc1)(Oc1ccccc1)Oc1ccccc1,12.2%
7,Cc1ccc(OCC(=O)Nc2ccc(S(=O)(=O)N(C)C3CCN(C)CC3)cc2)c(C)c1,-2.32%
8,O=C(CSc1n[nH]c(-c2cccnc2)n1)Nc1ccccc1[N+](=O)[O-],-0.464%
9,CC(C)(C)NC(=O)NC(=O)CN1CCN(c2ccccc2)CC1,-22.6%
10,COc1ccc(CCNC(=O)c2cc3sccc3n2C)cc1OC,-6.67%
11,CCCC(=O)Nc1ccc(NC(=O)c2ccccc2OC)cn1,-8.93%
12,Cc1noc(NS(=O)(=O)c2ccc(N/C=C\C(=O)c3cccs3)cc2)c1C,19.1%
13,Cc1ccc(C(=O)OCC(=O)NCc2ccco2)cc1C,4.55%
14,CCN(CC)S(=O)(=O)c1ccc2c3c(cccc13)C(=O)N2,-18.2%
15,O=C(COc1ccc(-c2ccccc2)cc1)NNC(=O)NC1CCCCC1,-5.8%
16,CCOC(=O)CNC(=O)c1ccccc1,0.49%
17,Cc1c(C#N)c(O)n(CCO)c(=O)c1N=Nc1ccc(S(N)(=O)=O)cc1,-8.16%
18,CCc1nc(SCc2ccc(Cl)cc2)n[nH]1,12%
19,Cc1cccc2cc3c(nc12)-c1ccccc1C3=O,11.4%
20,CCN(CC)c1ccc([N+](=O)[O-])cc1C(=O)N1CCOCC1,5.92%
21,Cc1ccccc1NC(=O)Nc1nnc(CC(=O)NCc2ccccc2)s1,-19.9%
